Laboratory results taken from paper PMC4336329 (PLoS ONE, 2015).
Screen size: about 310,000 compounds; about 2,200 (0.71%) showed an effect of 50% or more. Effects have a minus sign here. The list shows a part of the results.

These compounds were tested against human ether-à-go-go-related gene (hERG) potassium channel (human, UniProt Q12809) (assay: primary screen, population patch clamp on CHO cells stably expressing hERG).
human ether-à-go-go-related gene (hERG) potassium channel, sequence (Q12809 whole entry, looked up): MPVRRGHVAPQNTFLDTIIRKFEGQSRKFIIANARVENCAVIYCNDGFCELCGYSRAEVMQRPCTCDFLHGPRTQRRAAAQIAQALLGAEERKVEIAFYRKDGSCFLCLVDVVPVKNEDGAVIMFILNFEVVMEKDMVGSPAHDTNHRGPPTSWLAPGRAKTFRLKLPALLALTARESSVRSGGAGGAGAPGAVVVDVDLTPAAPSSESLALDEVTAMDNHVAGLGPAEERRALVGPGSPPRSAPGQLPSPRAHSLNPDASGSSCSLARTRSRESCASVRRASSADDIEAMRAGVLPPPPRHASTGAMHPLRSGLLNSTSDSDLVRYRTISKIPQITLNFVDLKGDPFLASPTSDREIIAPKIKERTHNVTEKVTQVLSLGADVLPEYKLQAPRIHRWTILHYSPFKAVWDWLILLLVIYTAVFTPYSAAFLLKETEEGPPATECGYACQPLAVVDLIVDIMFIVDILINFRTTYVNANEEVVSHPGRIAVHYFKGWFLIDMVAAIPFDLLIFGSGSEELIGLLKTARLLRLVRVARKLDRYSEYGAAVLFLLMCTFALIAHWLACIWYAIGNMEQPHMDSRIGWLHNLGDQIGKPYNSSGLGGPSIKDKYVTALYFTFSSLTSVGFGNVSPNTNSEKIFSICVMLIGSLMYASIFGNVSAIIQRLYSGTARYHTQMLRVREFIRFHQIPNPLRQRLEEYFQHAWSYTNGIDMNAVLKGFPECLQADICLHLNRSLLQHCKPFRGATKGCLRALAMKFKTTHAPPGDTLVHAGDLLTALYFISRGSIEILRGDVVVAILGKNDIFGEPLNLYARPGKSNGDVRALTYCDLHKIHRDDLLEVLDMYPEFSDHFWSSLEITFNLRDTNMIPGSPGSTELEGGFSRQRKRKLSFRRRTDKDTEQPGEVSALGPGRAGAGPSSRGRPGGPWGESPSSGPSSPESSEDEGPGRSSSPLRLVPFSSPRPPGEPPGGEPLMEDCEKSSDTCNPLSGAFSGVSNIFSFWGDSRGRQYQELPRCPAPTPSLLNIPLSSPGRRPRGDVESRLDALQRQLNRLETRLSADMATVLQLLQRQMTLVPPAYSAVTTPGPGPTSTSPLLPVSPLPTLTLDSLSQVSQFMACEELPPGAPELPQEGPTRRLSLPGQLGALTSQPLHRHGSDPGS

Point of comparison: `CS(=O)(=O)c1ccc(Cl)c(C(=O)Nc2ccc3nc(N4CCOCC4)sc3c2)c1`, “hERG current change (%, negative = inhibition) at 1uM” value 9.77%. Against it:
- Cc1cc(NNC(=O)Nc2cccc(Cl)c2)nc2c1c(C)nn2C — lower, 9.23%
- COC(=O)C(NC(=O)c1ccccc1)(Nc1nc(C)cs1)C(F)(F)F (stereo not drawn) — higher, 20.7%
- O=C(/C(=C/c1cccc(Cl)c1)c1nc2ccccc2[nH]1)c1ccccc1 — lower, 7.65%
- COC(=O)CNC(=O)CN(c1ccc(OC)cc1OC)S(=O)(=O)c1ccccc1 — higher, 15.7%
- Cc1nc(NCc2ccco2)nc2c1C(=O)CC(C)C2 (stereo not drawn) — lower, -1.42%
- COc1cccc(NC(=O)c2cnsn2)c1 — lower, 6.53%
- Nc1scc[n+]1Cc1cccc2cccnc12.[Br-] — lower, 4.56%
- C=CCNc1nc2ccccc2nc1NS(=O)(=O)c1ccc(Br)cc1 — higher, 11%
- Cc1cc(C)cc(Nc2nc3c([nH]2)c(=O)n(C)c(=O)n3C)c1 — lower, 7.22%
- COc1ccc(C(=O)Nc2cc(C)on2)cc1S(=O)(=O)N1CC(c2ccccc2)CC1=O (stereo not drawn) — higher, 9.79%
- CCOC(=O)c1ccc(NC(=O)CN2CCN(C(=O)C3CCCO3)CC2)cc1 (stereo not drawn) — higher, 15.6%
- CN(Cc1cccc(F)c1)C(=O)c1ccc(NS(=O)(=O)c2ccc3[nH]c(=O)[nH]c3c2)cc1 — higher, 11.7%
- CO/N=C/C(C(C)=O)C(=O)Nc1ccc(Cl)cc1Cl (stereo not drawn) — lower, 8.8%
- Cc1ccccc1OCCSc1nc(N(C)C)nc(N(C)C)n1 — higher, 23.2%
- C=CCn1c(O)c(/C=N/N2CCOCC2)c(=O)[nH]c1=S — lower, 8.18%
- COCc1nnc(NC(=O)CCCOc2ccccc2OC)s1 — higher, 16.6%
- Cc1nn2c(-c3ccc(Cl)cc3Cl)nnc2s1 — lower, -0.908%
- CC/C(C)=N/Nc1nc2c(c(=O)[nH]c(=O)n2C)n1CCc1ccccc1 — higher, 23.6%
- COc1ccc(N2CC(C(=O)Nc3nnc(SCc4cccnc4)s3)CC2=O)cc1 (stereo not drawn) — higher, 10.5%
- O=C(O)c1ccc(N=Cc2c(O)n(Cc3ccc(F)cc3)c(=O)[nH]c2=O)cc1 — lower, 5.7%
- COc1ccc(F)cc1C(=O)C1CCCN(Cc2cnc(N3CCCC3)s2)C1 (stereo not drawn) — lower, -0.126%
- CC(OC(=O)c1ccc2c(=O)n3c(nc2c1)CCCCC3)C(=O)Nc1ncc(Cl)cc1Cl (stereo not drawn) — lower, 7.83%
- COc1ccc(CNC(=O)CCCSc2ccccc2)cc1 — lower, 5.45%
- CCS(=O)(=O)CCSC1OC(COC(C)=O)C(OC(C)=O)C(OC(C)=O)C1OC(C)=O (stereo not drawn) — lower, 5.65%
- Cc1ccc2c(c1)C1CN(C)CCC1N2C(=O)Cc1cccs1.Cl (stereo not drawn) — lower, 7.01%
- O=C(C1=C[C@@H](c2ccc(Br)cc2)C[C@@H](OCc2ccc(CO)cc2)O1)N1CCN(Cc2ccc3c(c2)OCO3)CC1 — lower, 1.73%
- CCc1cc(C(=O)N2CCc3c([nH]c4ccccc34)C2c2ccc(OC)cc2F)no1 (stereo not drawn) — higher, 17.6%
- CCOC(=O)N1CCN(C(=O)CSc2ccc(-c3ccccc3)nn2)CC1 — lower, 3.11%
- O=C(O)c1ccc(/C=C(\c2nc3ccccc3[nH]2)c2nc3ccccc3s2)cc1 — higher, 12.7%
- N#Cc1c(N)n(-c2cccc(C(=O)O)c2)c2nc3ccccc3nc12 — lower, 7.61%
- Cc1ccc(C)c(NS(=O)(=O)c2cc(C(=O)NCC3CCCO3)ccc2C)c1 (stereo not drawn) — lower, 1.35%
- CC(Cc1cccs1)NC(=O)Nc1ccc([N+](=O)[O-])cc1 (stereo not drawn) — lower, -6.07%
- CC(=O)c1ccc(NC(=O)C(C)N(C)CC(=O)Nc2ccc(Cl)cc2)cc1 (stereo not drawn) — lower, 2.92%
- CSCCC(NC(=O)c1ccccc1Br)C(=O)N1CCN(C(C)=O)CC1 (stereo not drawn) — higher, 17.3%
- Cc1ccc(S(=O)(=O)N2CCC(NC(=O)C3CCCCC3)CC2)cc1 — higher, 13.9%
- Cc1cc(-c2c(C)[nH]n(-c3ccc(Cl)cc3)c2=O)n(-c2ccc(Cl)cc2)n1 — lower, 5.46%
- Cc1ccc(NC(=O)c2ccc3nc(N4CCOCC4)sc3c2)c(Cl)c1 — lower, 7.79%
- CCc1ccc(CN2CCCC(C(=O)N3CCCCC3)C2)cc1.O=C(O)C(=O)O (stereo not drawn) — lower, -11.4%
- Cn1nnnc1SCC(=O)N1CCN(c2ccc(Cl)cc2)CC1 — lower, -16.2%
- CCN(CC)CCNc1nc(-c2ccc(OC(F)F)cc2)c(C)s1 — lower, -31.4%
- CCOc1ccc2[nH]c(=O)c(CN(Cc3nnnn3Cc3ccccc3)CC3CCCO3)cc2c1 (stereo not drawn) — lower, 0.593%
- CCn1c(COc2c(C)cccc2C)nnc1SCc1nc2ccccc2c(=O)[nH]1 — lower, 7.61%
- O=C(NNC(=S)Nc1cccc2ccccc12)c1cccc(Br)c1 — lower, 3.48%
- O=[N+]([O-])c1ccc(N2CCN(c3ccccc3)CC2)cc1 — lower, 9.45%
- Cc1cccc(NC(=S)NC(=O)/C=C/c2ccco2)c1 — higher, 14.3%
- COc1ccc(NC(=O)Nc2ccon2)cc1OC — lower, -8.08%
- Clc1cccc(Cl)c1OCCOCCNCc1ccccc1.O=C(O)C(=O)O — higher, 9.9%
- Cn1c(=O)c2cc(S(=O)(=O)NCCC(=O)NCCC3=CCCCC3)ccc2n(C)c1=O — lower, 2.16%
- OC[C@H]1O[C@@H](n2cnc3c(NC4CCCC4)ncnc32)[C@H](O)[C@@H]1O — higher, 10.5%
- Cc1cccc(C(=O)N2N=C(c3ccc(NS(C)(=O)=O)cc3)CC2c2cccs2)c1 (stereo not drawn) — lower, 7.91%
- COc1ccc(-c2cc(-c3ccccc3)n3ncnc3n2)cc1 — lower, 8.02%
- COCCCn1c(C)nnc1SCC(=O)NNC(=O)COc1ccc(Cl)cc1 — higher, 11.8%
- Cc1ccc(C2(C)NC(=O)N(CC(=O)NNC(=O)c3ccoc3C)C2=O)cc1 (stereo not drawn) — higher, 19.9%
- CCCC(=O)C1=C(O)C(C(=O)OC)C(C)(C)CC1=Nc1ccc(N)cc1 (stereo not drawn) — lower, -7.56%
- Cc1ccc(C)c(-n2cc(CN3CCNC(=O)CC3)c(-c3ccccc3)n2)c1 — lower, 3.8%
- COC(=O)Cn1c(=NC(=O)c2ccc(Cl)s2)sc2cc(C)ccc21 — higher, 19.2%
- COCC(=O)Nc1ccccc1-c1ccccc1 — higher, 13.7%
- Cc1ccc(C(=O)NCCCNC(=O)c2ccco2)cn1 — lower, 6.51%
- COc1ccc(S(=O)(=O)Nc2nc3ccccc3nc2Nc2cccc(C(=O)O)c2)cc1 — higher, 9.85%
- COc1ccccc1CNC(=O)COC(=O)Cc1c(F)cccc1Cl — lower, 9.18%
- COc1cc(/C=C/C(=O)N(C)c2ccccc2C(=O)O)cc(OC)c1OC — lower, 5.28%
- CN(CC(=O)NCc1ccccc1)S(=O)(=O)c1cnc[nH]1 — higher, 15.3%
- CC(C)(C)NC(=O)C1N(c2cccnc2)C(=O)C2C(C(=O)Nc3ccccc3)C3(C)C=CC21O3 (stereo not drawn) — lower, 5.41%
- COc1ccc(S(=O)(=O)Nc2nc3c(s2)CCCC3)cc1 — higher, 10.1%
- CSc1cccc(NC(=S)N2CCC(N(C)C(C)C)CC2)c1 — lower, 7.06%
- Cc1ccc(-n2ncc3c(NCc4ccco4)ncnc32)c(C)c1 — lower, 8.65%
- Cn1cnc([N+](=O)[O-])c1Sc1ccccc1 — lower, 5.83%
- CCOC(=O)n1c(=O)n(Cc2ccc(F)cc2)c2ccccc21 — lower, 0.451%
- CCN1C(=O)/C(=C/c2cnn(CC)c2C)SC1=S — higher, 13.2%
- COc1ccc(C(=O)N/N=C(/C)c2cccc(NC(=O)C(F)(F)F)c2)cc1 — higher, 13.6%
- O=C(COc1ccccc1Cl)NCCNC(=O)c1cnccn1 — lower, 7.9%
- O=C(NCc1cccc(Cl)c1)c1ccc(CS(=O)Cc2ccc(Cl)cc2)o1 (stereo not drawn) — lower, 8.53%
- COc1ccc(-c2cc(C)no2)cc1S(=O)(=O)N1CCOc2ccc(C)cc21 — higher, 15.2%
- CCOc1cc2[nH]c(=O)n(CCC(=O)N3CCN(c4ccccc4OC)CC3)c(=O)c2cc1OCC — lower, 8.01%
- Cc1cccc(NC(=O)N[C@@H](C)C(=O)O)c1 — lower, -2.51%
- N#Cc1ccc(NC(=O)Cn2cnc(S(=O)(=O)N3CCOCC3)c2)cc1 — higher, 13.1%
- Cc1ccc(OCC(=O)Nc2cccnc2Cl)cc1C — higher, 10.7%
- CCSC(C)CC1C/C(=N/O)c2c(C)noc2C1 (stereo not drawn) — lower, -48.9%
- CC(O)c1nc2ccccc2n1CC(=O)Nc1ccc2c(c1)OCCO2 (stereo not drawn) — higher, 14.1%
- C=C1CCN([C@@H](CC(C)C)C(=O)NCc2ccc(OC)cc2)S(=O)(=O)c2ccccc21 — lower, -13.8%
- COc1cc(SC)ccc1C(=O)N1CCN(Cc2ccc3c(c2)OCO3)CC1 — lower, 6.05%
- COc1ccc(CCNC(=O)Cn2nnc(-c3ccc(N(C)C)cc3)n2)cc1OC — lower, 7.82%
- CC1=CN2C(=NC(=O)CC2(C)C(=O)N(CC(=O)NC2CCCC2)c2ccccc2C)C=C1 (stereo not drawn) — higher, 12.4%
- CN(Cc1nccn1C)C(=O)C1CCC(=O)N(CCc2ccc(Cl)cc2)C1 (stereo not drawn) — lower, -23.4%
- COc1ccc(C(=O)CSc2n[nH]c(=O)n2Cc2ccco2)cc1 — lower, 1.38%
- CCn1nnnc1SCC(=O)c1cccc(OC)c1 — higher, 11.2%
